Source: patent US20240124575A1 (SIMCERE ZAIMING PHARMACEUTICAL, published 2024)

What was measured:
[1] = biological target: T1, human CD33 on CHO-K1 cells (CHO-K1-human CD33) (human, UniProt P20138); experiment: FACS, CHO-K1-human CD33 cells
T1 construct: whole, on cells; stably transfected CHO-K1 clones; also called CHO-K1-hCD33-B8; CHO-K1-human CD33 B8

[2] = biological target: T1, human CD33 on CHO-K1 cells …; experiment: FACS on CHO-K1-human CD33 cells
human CD33-V-his [3] = biological target: T2, human CD33-V-his (human, UniProt P20138 18-144); experiment: ELISA on coated human CD33-V-his
T2 construct: expressed in HEK293E; also called hCD33-V-his; human CD33 protein V-domain; not shown: His tag

[4] = biological target: T3, human CD33-His (extracellular domain Asp 18-His 259) (human, UniProt P20138 18-259); experiment: ELISA, antigen coated
T3 construct: range 18-259; bought protein; also called hCD33-his; human CD33 protein; not shown: His tag

human CD33-V-his [5] = biological target: T2, human CD33-V-his; experiment: ELISA on coated human CD33-V-his; remark: listed apart in the source
[6] = biological target: T1, human CD33 on CHO-K1 cells …; experiment: FACS, CHO-K1-human CD33 cells; remark: listed apart in the source
[7] = biological target: T4, human CD33 on U937 cells (endogenous) (human, UniProt P20138); experiment: FACS, U937 cells
T4 construct: whole, on cells

human CD33-V-his [8] = biological target: T2, human CD33-V-his; experiment: ELISA on coated human CD33-V-his; remark: listed apart in the source
human CD33-V-his [9] = biological target: T2, human CD33-V-his; experiment: ELISA on coated human CD33-V-his; remark: listed apart in the source
[10] = biological target: T3, human CD33-His (extracellular domain …); experiment: ELISA, antigen coated; remark: listed apart in the source
[11] = biological target: T4, human CD33 on U937 cells (endogenous); experiment: FACS, U937 cells; remark: listed apart in the source
T4 sequence (P20138 18-364): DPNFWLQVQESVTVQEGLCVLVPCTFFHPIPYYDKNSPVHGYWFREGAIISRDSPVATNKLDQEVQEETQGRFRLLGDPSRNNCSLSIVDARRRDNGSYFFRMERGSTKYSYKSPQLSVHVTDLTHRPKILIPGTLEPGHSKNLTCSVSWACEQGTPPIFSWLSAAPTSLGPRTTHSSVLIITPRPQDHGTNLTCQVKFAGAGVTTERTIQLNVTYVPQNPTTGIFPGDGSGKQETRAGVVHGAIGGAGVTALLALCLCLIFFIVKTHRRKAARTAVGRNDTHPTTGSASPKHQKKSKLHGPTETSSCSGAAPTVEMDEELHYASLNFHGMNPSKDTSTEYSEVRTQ

T2 sequence (P20138 other isoform, or with tags, fused parts or gaps limits assumed): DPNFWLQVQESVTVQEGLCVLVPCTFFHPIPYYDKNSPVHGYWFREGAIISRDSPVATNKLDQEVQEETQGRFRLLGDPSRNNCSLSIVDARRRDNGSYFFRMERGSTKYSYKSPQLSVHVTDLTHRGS

B1: SGN-33 scFv-hIgG1Fc (Fc fusion)
chain: QVQLVQSGAEVKKPGASVKVSCKASGYTFTNYDINWVRQAPGQGLEWIGWIYPGDGSTKYNEKFKAKATLTADTSTSTAYMELRSLRSDDTAVYYCASGYEDAMDYWGQGTTVTVSSGGGGSGGGGSGGGGSDIQMTQSPSSLSASVGDRVTINCKASQDINSYLSWFQQKPGKAPKTLIYRANRLVDGVPSRFSGSGSGQDYTLTISSLQPEDFATYYCLQYDEFPLTFGGGTKVEIK[letters of human IgG1 Fc with changes left out]
notes: scFv-hFc format; also called CD33 antibody
B1 was tested, and the EC50 [1] was 160 pM, the “Max MFI” value [1] was 6920 MFI and the “EC50 (read off the curve)” value [2] was roughly 200 pM. For the same binder, the “EC50 (read off the curve)” value (human CD33-V-his [3]) was roughly 200 pM, the “OD450 at 0.0001 nM” value [4] was 0.05 OD450 and the “OD450 at 0.001 nM” value [4] was 0.06 OD450. For the same binder, the “OD450 at 0.01 nM” value [4] was 0.08 OD450, the “OD450 at 0.1 nM” value [4] was 0.39 OD450 and the “OD450 at 1 nM” value [4] was 0.71 OD450. For the same binder, the “OD450 at 10 nM” value [4] was 1.56 OD450, the “OD450 at 100 nM” value [4] was 1.35 OD450 and the “EC50 (read off the curve)” value (human CD33-V-his [5]) was roughly 200 pM. The EC50 [6] was 390 pM, the “Max MFI” value [6] was 9920 MFI and the EC50 [7] was 1990 pM. For the same binder, the “Max MFI” value [7] was 1390 MFI, the “EC50 (read off the curve)” value (human CD33-V-his [8]) was roughly 200 pM and the “EC50 (read off the curve)” value (human CD33-V-his [9]) was roughly 60 pM. The “OD450 at 0.0001 nM” value [10] was 0.04 OD450, the “OD450 at 0.001 nM” value [10] was 0.06 OD450 and the “OD450 at 0.01 nM” value [10] was 0.26 OD450. The “OD450 at 0.1 nM” value [10] was 0.74 OD450, the “OD450 at 1 nM” value [10] was 1.48 OD450 and the “OD450 at 10 nM” value [10] was 1.56 OD450. The “OD450 at 100 nM” value [10] was 1.3 OD450, the EC50 [11] was 4050 pM and the “Max MFI” value [11] was 1170 MFI.

Like-named read-outs stand apart in the source and are kept apart here.
